Values of other authors in patent US9907859B2 (priority 2010, dated 2018).
Read-outs that look alike come from different tables or passages of the source.

Settings: cited from earlier work

## CC(O)COC[C@H]1O[C@@H]2O[C@H]3[C@H](O)[C@@H](O)[C@@H](O[C@H]4[C@H](O)[C@@H](O)[C@@H](O[C@H]5[C@H](O)[C@@H](O)[C@@H](O[C@H]6[C@H](O)[C@@H](O)[C@@H](O[C@H]7[C@H](O)[C@@H](O)[C@@H](O[C@H]8[C@H](O)[C@@H](O)[C@@H](O[C@H]1[C@H](O)[C@H]2O)O[C@@H]8COCC(C)O)O[C@@H]7COCC(C)O)O[C@@H]6COCC(C)O)O[C@@H]5COCC(C)O)O[C@@H]4COCC(C)O)O[C@@H]3COCC(C)O (stereo partly drawn) [2-hydroxypropyl-β-cyclodextrin]
At 25° C.
  Aqueous solubility (g/100 mL): 65%
At 50° C.
  Aqueous solubility (g/100 mL): 80%
